# The supplement of paper PMC8728848
# This is one part of the list.
# Key:
# Assay in all cases: glycan array binding signal (z-score within array); higher = stronger binding
# Conditions in all cases: glycan notation: IUPAC condensed, linker removed
# [1] = biological target: Gal(a1-2)Gal
# How it was run: (§1)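 The binding signal is a Z-score computed within each array and averaged over linkers. Arrays of the same protein sequence at different concentrations or buffers were also averaged together. Data originate from 3228 arrays in the Consortium for Functional Glycomics database, kept only where the protein sequence was available.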
# [2] = biological target: Gal(a1-3)Gal
# How it was run: as §1
# [3] = biological target: Gal(a1-3)Gal(b1-3)GlcNAc
# How it was run: as §1
# [4] = biological target: Gal(a1-3)Gal(b1-4)Glc
# How it was run: as §1
# [5] = biological target: Gal(a1-3)Gal(b1-4)GlcNAc
# How it was run: as §1
# [6] = biological target: Gal(a1-3)Gal(b1-4)[Fuc(a1-3)]GlcNAc
# How it was run: as §1
# [7] = biological target: Gal(a1-3)Gal(b1-4)[Fuc(a1-3)]GlcNAc(b1-2)Man(a1-3)[Gal(a1-3)Gal(b1-4)[Fuc(a1-3)]GlcNAc(b1-2)Man(a1-6)]Man(b1-4)GlcNAc(b1-4)GlcNAc
# How it was run: as §1
# [8] = biological target: Gal(a1-3)GalNAc
# How it was run: as §1
# [9] = biological target: Gal(a1-3)[Gal(a1-4)]Gal(b1-4)GlcNAc
# How it was run: as §1
# [10] = biological target: Gal(a1-4)Gal(b1-4)Glc
# How it was run: as §1
# [11] = biological target: Gal(a1-4)Gal(b1-4)GlcNAc
# How it was run: as §1
# [12] = biological target: Gal(a1-4)Gal(b1-4)GlcNAc(b1-3)Gal(b1-4)Glc
# How it was run: as §1
# [13] = biological target: Gal(a1-4)GlcNAc
# How it was run: as §1
# [14] = biological target: Gal(a1-6)Glc
# How it was run: as §1
# [15] = biological target: Gal(b1-2)Gal
# How it was run: as §1
# [16] = biological target: Gal(b1-3)Gal
# How it was run: as §1
# [17] = biological target: Gal(b1-3)Gal(b1-4)GlcNAc
# How it was run: as §1
# [18] = biological target: Gal(b1-3)Gal(b1-4)GlcNAc(b1-2)Man(a1-3)[Gal(b1-3)Gal(b1-4)GlcNAc(b1-2)Man(a1-6)]Man(b1-4)GlcNAc(b1-4)GlcNAc
# How it was run: as §1
# [19] = biological target: Gal(b1-3)GalNAc
# How it was run: as §1
# [20] = biological target: Gal(b1-3)GalNAc(a1-3)[Fuc(a1-2)]Gal(b1-4)Glc
# How it was run: as §1
# [21] = biological target: Gal(b1-3)GalNAc(a1-3)[Fuc(a1-2)]Gal(b1-4)GlcNAc
# How it was run: as §1
# [22] = biological target: Gal(b1-3)GalNAc(b1-3)Gal(a1-4)Gal(b1-4)Glc
# How it was run: as §1
# [23] = biological target: Gal(b1-3)GalNAc(b1-4)Gal(b1-4)Glc
# How it was run: as §1
# [24] = biological target: Gal(b1-3)GalNAc(b1-4)[Neu5Ac(a2-3)]Gal(b1-4)Glc
# How it was run: as §1
# [25] = biological target: Gal(b1-3)GlcNAc
# How it was run: as §1
# [26] = biological target: Gal(b1-3)GlcNAc(b1-2)Man(a1-3)[Gal(b1-3)GlcNAc(b1-2)Man(a1-6)]Man(b1-4)GlcNAc(b1-4)GlcNAc
# How it was run: as §1
# [27] = biological target: Gal(b1-3)GlcNAc(b1-2)Man(a1-3)[Gal(b1-3)GlcNAc(b1-2)Man(a1-6)]Man(b1-4)GlcNAc(b1-4)[Fuc(a1-6)]GlcNAc
# How it was run: as §1
# [28] = biological target: Gal(b1-3)GlcNAc(b1-3)Gal(b1-3)GlcNAc
# How it was run: as §1
# [29] = biological target: Gal(b1-3)GlcNAc(b1-3)Gal(b1-4)Glc
# How it was run: as §1
# [30] = biological target: Gal(b1-3)GlcNAc(b1-3)Gal(b1-4)GlcNAc
# How it was run: as §1
# [31] = biological target: Gal(b1-3)[Fuc(a1-4)]GlcNAc
# How it was run: as §1
# [32] = biological target: Gal(b1-3)[Fuc(a1-4)]GlcNAc(b1-2)Man(a1-3)[Gal(b1-3)[Fuc(a1-4)]GlcNAc(b1-2)Man(a1-6)]Man(b1-4)GlcNAc(b1-4)GlcNAc
# How it was run: as §1
# [33] = biological target: Gal(b1-3)[Fuc(a1-4)]GlcNAc(b1-2)Man(a1-3)[Gal(b1-3)[Fuc(a1-4)]GlcNAc(b1-2)Man(a1-6)]Man(b1-4)GlcNAc(b1-4)[Fuc(a1-6)]GlcNAc
# How it was run: as §1
# [34] = biological target: Gal(b1-3)[Fuc(a1-4)]GlcNAc(b1-3)Gal(b1-3)[Fuc(a1-4)]GlcNAc
# How it was run: as §1
# [35] = biological target: Gal(b1-3)[Fuc(a1-4)]GlcNAc(b1-3)Gal(b1-4)GlcNAc
# How it was run: as §1
# [36] = biological target: Gal(b1-3)[Fuc(a1-4)]GlcNAc(b1-3)Gal(b1-4)[Fuc(a1-3)]GlcNAc
# How it was run: as §1
# [37] = biological target: Gal(b1-3)[GlcNAc(b1-6)]GalNAc
# How it was run: as §1
# [38] = biological target: Gal(b1-3)[Neu5Ac(a2-6)]GalNAc
# How it was run: as §1
# [39] = biological target: Gal(b1-3)[Neu5Ac(a2-6)]GlcNAc(b1-6)Gal(b1-4)Glc
# How it was run: as §1
# [40] = biological target: Gal(b1-3)[Neu5Ac(b2-6)]GalNAc
# How it was run: as §1
# [41] = biological target: Gal(b1-4)GalNAc(a1-3)[Fuc(a1-2)]Gal(b1-4)GlcNAc
# How it was run: as §1
# [42] = biological target: Gal(b1-4)GalNAc(b1-3)[Fuc(a1-2)]Gal(b1-4)GlcNAc
# How it was run: as §1
# [43] = biological target: Gal(b1-4)Glc
# How it was run: as §1
# [44] = biological target: Gal(b1-4)Glc6S
# How it was run: as §1
# [45] = biological target: Gal(b1-4)GlcNAc
# How it was run: as §1
binder,measurement,setting,value
"LcH (Lens culinaris), P02870 (protein) TETTSFSITKFSPDQQNLIFQGDGYTGKEGLTLTKVSKETGGRALYSTPIHIWDRDTVNVANFVTNGSQVFRESPNGYNVADGFTFFIAPVDTKPQTGGGYLGVFYNGKEYDKTSQTVAVEFDTFYNAAWDPSNKERHIGIDVNSIKSVNTKSWNLQNGVTSYTLNEVVPLKDVVPEWVRIGFSATTGAEFAAQEVHSWSFNSQLGHTSKS",glycan array binding signal (z-score),[1],-0.122
same,glycan array binding signal (z-score),[2],-0.097
same,glycan array binding signal (z-score),[3],-0.11
same,glycan array binding signal (z-score),[4],-0.145
same,glycan array binding signal (z-score),[5],-0.13
same,glycan array binding signal (z-score),[6],-0.114
same,glycan array binding signal (z-score),[7],-0.138
same,glycan array binding signal (z-score),[8],-0.104
same,glycan array binding signal (z-score),[9],-0.13
same,glycan array binding signal (z-score),[10],-0.124
same,glycan array binding signal (z-score),[11],-0.127
same,glycan array binding signal (z-score),[12],-0.123
same,glycan array binding signal (z-score),[13],-0.13
same,glycan array binding signal (z-score),[14],-0.137
same,glycan array binding signal (z-score),[15],-0.126
same,glycan array binding signal (z-score),[16],-0.122
same,glycan array binding signal (z-score),[17],-0.128
same,glycan array binding signal (z-score),[18],-0.101
same,glycan array binding signal (z-score),[19],-0.108
same,glycan array binding signal (z-score),[20],-0.147
same,glycan array binding signal (z-score),[21],-0.093
same,glycan array binding signal (z-score),[22],-0.118
same,glycan array binding signal (z-score),[23],-0.114
same,glycan array binding signal (z-score),[24],-0.105
same,glycan array binding signal (z-score),[25],-0.133
same,glycan array binding signal (z-score),[26],-0.127
same,glycan array binding signal (z-score),[27],14.3
same,glycan array binding signal (z-score),[28],-0.142
same,glycan array binding signal (z-score),[29],-0.096
same,glycan array binding signal (z-score),[30],-0.138
same,glycan array binding signal (z-score),[31],-0.114
same,glycan array binding signal (z-score),[32],0.003
same,glycan array binding signal (z-score),[33],-0.076
same,glycan array binding signal (z-score),[34],-0.125
same,glycan array binding signal (z-score),[35],-0.152
same,glycan array binding signal (z-score),[36],-0.123
same,glycan array binding signal (z-score),[37],-0.118
same,glycan array binding signal (z-score),[38],-0.095
same,glycan array binding signal (z-score),[39],-0.094
same,glycan array binding signal (z-score),[40],-0.115
same,glycan array binding signal (z-score),[41],-0.102
same,glycan array binding signal (z-score),[42],-0.109
same,glycan array binding signal (z-score),[43],-0.131
same,glycan array binding signal (z-score),[44],-0.101
same,glycan array binding signal (z-score),[45],-0.11
